# Measured values: PubChem BioAssay AID651820 (National Center for Advancing Translational Sciences (NCATS), 2012)
# Values joined by “and” are separate entries in the source; they are usually repeats but may differ in a detail not shown here. Identical values can stand only once. The whole screen tested about 340,000 compounds, of which about 12,000 (3.5%) were called active. Inconclusive results, whose numbers are uncertain, are shown with a selection of clear calls. The call rests on the fitted dose curve; in most records, active means well fitted inhibition curve with a large enough effect; inconclusive means small, poorly fitted or top-dose-only effect, or another doubt; inactive means no such curve, though single readings can be large or run the other way. Potencies of inconclusive entries are doubtful fits and often do not repeat.
# Experiment: qHTS Assay for Inhibitors of Hepatitis C Virus (HCV)
# Conditions: Huh7.5.1 HCVcc-Cre (HCVcc is cell-culture hepatitis C virus) infection, luciferase reporter, 44 h; activity change, negative = inhibition: at 41.8 µM (top of the series) unless noted
# Summary of the method: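 Cells seeded at 1,000/well and cultured 4 h, then compounds added followed by HCVcc-Cre virus (~0.5 moi). After 44 h further culture, luciferase substrate was added, plates held 15 min at room temperature, and luminescence read for 15 sec.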
# On the % scale 0 is the no-effect control and ±100 the full control effect; potency means the concentration at half of the fitted maximal effect; tags describe the fitted curve by direction and shape.
SMILES,"activity change, negative = inhibition",Potency
COc1ccc(Cl)cc1S(=O)(=O)N1CCN(Cc2ccc3c(c2)OCO3)CC1,inactive: -12%,
O=C(C[C@H]1C[C@H](C(=O)N2CCOCC2)[C@@]2(CCC3CCCC3)c3[nH]c4cc(-c5ccco5)ccc4c3CCN2C1=O)NCCN1CCOCC1,,"inconclusive: 25.1 µM [inhibitor, partial curve]"
CCOC(=O)NCc1cc(-c2nn(C)c(=O)c3ccccc23)ccc1C,,"inconclusive: 22.4 µM [inhibitor, single point]"
COc1ccc(OC)c(/C=N/N=C2\SCC(=O)N2Cc2ccco2)c1,,"inconclusive: 7.08 µM [inhibitor, partial curve]"
c1ccc(OCCOCCN2CCc3ccccc3C2)cc1,,"inconclusive: 31.6 µM [inhibitor, single point]"
NS(=O)(=O)c1cc(Cl)c(Cl)c(S(N)(=O)=O)c1,,"inconclusive: 11.2 µM [inhibitor, single point]"
CC(=O)c1cc(-c2ccc(F)cc2)n(CCC(=O)Nc2cccc(C)n2)c1C,inactive: -28.9%,
O=C(Nc1nnc(-c2ccccc2)o1)NC1CCCCC1,inactive: -28.3%,
COc1ccccc1/C=C/CN1CCC(Oc2ccc(C(=O)N3CCCCC3)cc2)CC1,,"inconclusive: 5.62 µM [inhibitor, single point]"
O=C(CCc1nnc(CCCCc2ccccc2)o1)NC1CCCC1,,"inconclusive: 0.501 µM [inhibitor, partial curve, poor fit]"
COc1cccc(Nc2nc(-c3cccs3)nc3ccccc23)c1,,"inconclusive: 7.94 µM [inhibitor, partial curve]"
C=CCN(CC=C)C(=S)NC(=O)c1ccc(-c2ccccc2)cc1,,"inconclusive: 7.94 µM [inhibitor, partial curve]"
Cc1ccccc1-c1ncc(CN2CCN(C3CCCCC3)C(CCO)C2)cn1 (configuration not stated),inactive: -5.39%,
Cc1ccccc1OCC(=O)Nc1cccc(NC(=O)c2ccco2)c1,,"inconclusive: 6.31 µM [inhibitor, partial curve]"
C/C(CC(=O)Nc1ccc(C)c(Cl)c1)=N\NC(=O)c1ccccn1,inactive: 1.76%,
COc1ccc(Cn2nnnc2CN2CCc3ccccc3C2)cc1,,"inconclusive: 31.6 µM [inhibitor, single point]"
CCNc1nc(NC(C)C)nc(N(C#N)C(C)C(=O)N(C)C)n1 (configuration not stated),inactive: 1.44%,
CC(C)CNC(=O)NC(=O)CSc1nc2ccccc2n1CC(C)C,,"inconclusive: 12.6 µM [inhibitor, partial curve]"
CSc1ccccc1NC(=O)CN(C)C(=O)C1CCN(C(=O)Nc2ccccc2)CC1,inactive: -0.866%,
O=C(O)c1ccc(-n2nnc3ccccc32)c([N+](=O)[O-])c1,inactive: 33.6%,
Cc1nc(N2CCN(C(=O)c3ccco3)CC2)c2c3c(sc2n1)CCC3,,"inconclusive: 12.6 µM [inhibitor, single point]"
COc1ccc(-c2nc(NC(=O)C3CC(=O)N(c4ccc5c(c4)OCCO5)C3)sc2C)cc1 (configuration not stated),,"inconclusive: 11.2 µM [inhibitor, partial curve]"
Cn1cc(CNCc2ccc(OC(F)(F)F)cc2)c(-c2ccc3c(c2)OCCO3)n1,,active: 1 µM
COc1ccccc1NS(=O)(=O)c1ccc2oc(SCc3ccc(C#N)cc3)nc2c1,,active: 11.2 µM

SMILES,"activity change, negative = inhibition",Potency
CCCN(CC1CC1)C(=O)COc1ccccc1C(=O)NCc1ccccc1,,"inconclusive: 31.6 µM [inhibitor, single point]"
O=C(O)CSc1cc(NS(=O)(=O)c2cccc([N+](=O)[O-])c2)c2ccccc2c1O,,active: 11.2 µM
Cc1ccc(NC(=O)COC(=O)c2cccnc2Cl)cc1S(=O)(=O)N1CCOCC1,inactive: 8.14%,
CCN1CCC(N(C)C2CCCCC2)CC1,,"inconclusive: 4.47 µM [inhibitor, full curve]"
CC(C(=O)Nc1ccc(C(F)(F)F)cc1)N(C)CC(=O)N1CCN(Cc2ccccc2)CC1 (configuration not stated),,"inconclusive: 10 µM [inhibitor, partial curve]"
Cc1ccccc1-c1cc(C(=O)NCc2ccco2)nn1CC1CC(c2cccc([N+](=O)[O-])c2)=NO1 (configuration not stated),,"inconclusive: 10 µM [inhibitor, partial curve]"
Cc1cc(C)c(S(=O)(=O)Nc2ccc(O)cc2)c(C)c1,inactive: 3.78%,
OC(CN1CCN(c2ccc(C(F)(F)F)cn2)CC1)c1ccccc1 (configuration not stated),,"inconclusive: 31.6 µM [inhibitor, single point]"
Nc1c(C(=O)NCc2ccco2)sc2nc(N3CCOCC3)c3c(c12)CCCC3,,"inconclusive: 22.4 µM [inhibitor, single point]"
N#CC1=C(N)NC(SCc2ccc(Cl)cc2)=C(C#N)C12CCCCC2,,"inconclusive: 3.55 µM [inhibitor, full curve, poor fit]"
CC(C)(C)c1cc(C(=O)Nc2ccccc2)ccn1,,"inconclusive: 5.62 µM [inhibitor, full curve]"
Cc1nn2c(NCCCN3CCOCC3)c3c(nc2c1-c1ccccc1)CCC3,,"inconclusive: 2.82 µM [inhibitor, single point]"
COCCn1c(=O)[nH]c2cc(C(=O)NCCN3CCN(c4ccc(OC)cc4)CC3)ccc2c1=O,,"inconclusive: 31.6 µM [inhibitor, single point]"
Cc1ccc(N2CN(S(=O)(=O)c3cccc([N+](=O)[O-])c3)c3nc4ccccc4nc32)cc1,inactive: -0.799%,
O=S(=O)(c1ccc(F)cc1)N1CCN=C1SCc1cccnc1,inactive: 5.5%,
COc1ccc(CCN2CC(O)=C(c3nc(C)cs3)C2=N)cc1OC,inactive: 14.2%,
O=C(Nc1ccccc1)OCCOc1ccc(Br)cc1,inconclusive: -31.7% [inhibitor],
C=CCOc1ccc(CNc2nccs2)cc1OCC,,"inconclusive: 0.891 µM [inhibitor, full curve]"
COCCOC(=O)c1c(C)oc2ccc(NS(=O)(=O)c3ccc(C)cc3)cc12,,"inconclusive: 22.4 µM [inhibitor, single point]"
COCCn1c(SCC(=O)Nc2cccnc2Cl)nc2ccccc2c1=O,inactive: -10.7%,
CCN(CC(=O)NC1CCS(=O)(=O)C1)C(=O)/C=C/c1cccs1 (configuration not stated),inactive: -4.04%,
N#Cc1cc(-c2ccccc2)[nH]c1-c1nccc2ccccc12,,"inconclusive: 22.4 µM [inhibitor, single point]"
O/N=C(\c1ccccc1)C(O)c1ccccc1 (configuration not stated),inactive: 15.5%,
NCCCC[C@H]1CNC(=S)N1CCc1cccc(F)c1,,"inconclusive: 14.1 µM [inhibitor, single point]"

SMILES,"activity change, negative = inhibition",Potency
Cc1ccc(S(=O)(=O)N(C)c2ccc(C(=O)N(C)Cc3nc4ccccc4c(=O)[nH]3)cc2)cc1,inactive: -16.9%,
CCc1ccc2nc(N=C(N)N)nc(C)c2c1,,active: 5.01 µM
Cc1ccc(NS(=O)(=O)c2ccccc2)c2c1CC(C)(C)O2,,active: 10 µM
COc1ccc(NC(=O)CSc2ccc(F)cc2)cc1S(=O)(=O)N1CCCCC1,,"inconclusive: 31.6 µM [inhibitor, single point]"
Cc1ccccc1N1CCN(C(=O)c2cc(C3CC3)nn2-c2ccccc2)CC1,,"inconclusive: 10 µM [inhibitor, partial curve]"
CC(CC(=O)Nc1nc2ccccc2[nH]1)c1ccccc1 (configuration not stated),,"inconclusive: 11.2 µM [inhibitor, partial curve]"
COc1ccc(C(C(=O)NC2CCCCC2)N(C(=O)CCl)c2ccc(Cl)cc2)cc1 (configuration not stated),,active: 0.562 µM
c1ccc2c(c1)[nH]c1c(N3CCCC3)ncnc12,,active: 8.91 µM
N/C(=N\OC(=O)c1cc([N+](=O)[O-])ccc1Cl)c1cccnc1,,"inconclusive: 31.6 µM [inhibitor, single point]"
CSc1nccc(-c2sc(SC)c(C#N)c2-c2ccccc2)n1,,"inconclusive: 15.8 µM [inhibitor, partial curve]"
O=Nc1c2cc(-c3ccccc3)[nH]nc-2c2ccccc12,,"inconclusive: 10 µM [inhibitor, partial curve]"
C=CCN1C(=O)SC(Cc2cccc(OC)c2O)C1=O (configuration not stated),,"inconclusive: 3.55 µM [inhibitor, single point]"
O=C(c1ccc2c(c1)ncn2C1CCCCC1)N1CCC2(CC1)OCCO2,,"inconclusive: 7.08 µM [inhibitor, partial curve]"
CCN1CCN(Cc2cc(Br)ccc2O)CC1,,active: 35.5 µM
CCOc1ccc(NC(=O)COC(=O)c2cc(S(=O)(=O)N3CCCC3)ccc2C)cc1,,"inconclusive: 10 µM [inhibitor, partial curve]"
C[C@@H](C(=O)OCn1nnc2ccccc2c1=O)N1C(=O)C2CCCCC2C1=O (some centres not stated),,"inconclusive: 20 µM [inhibitor, single point]"
COc1ccc(NC(=O)Nc2ccc(Cc3ccncc3)cc2)cc1OC,,"inconclusive: 12.6 µM [inhibitor, single point]"
Cc1ccc2nc(C3CCCN(C(=S)Nc4ccccc4C)C3)[nH]c2c1 (configuration not stated),,"inconclusive: 2.51 µM [inhibitor, full curve]"
COc1cc(NC(=O)c2ccccc2F)ccc1NC(=O)c1ccccc1Cl,,"inconclusive: 2.82 µM [inhibitor, full curve]"
N#CCC(=O)Nc1ccc(C(=O)Nc2cccc(S(N)(=O)=O)c2)cc1,inactive: -0.704%,
COc1cc(CNCc2ccc(OC)cc2OC)cc(OC)c1,,"inconclusive: 11.2 µM [inhibitor, partial curve]"
COc1ccccc1N1CCN(C2CCCN(S(=O)(=O)c3ccc(C)cc3)C2)CC1 (configuration not stated),,"inconclusive: 31.6 µM [inhibitor, single point]"
CN(CC(=O)Nc1cccc(F)c1)CC(=O)Nc1cccc([N+](=O)[O-])c1,inactive: -21.1%,
COc1ccccc1OCC(O)Cn1c(=N)n(Cc2ccccc2)c2ccccc21 (configuration not stated),,"inconclusive: 31.6 µM [inhibitor, single point] and inconclusive: 22.4 µM [inhibitor, single point]"
